According to the supplement of paper PMC11417369:
This is one part of the list.

What follows are sequences tested on PfAP2-HC AP2 domain (GST-tagged) (assay: gcPBM binding intensity (ln(normalized median fluorescence intensity)); higher = stronger DNA binding).
Summary of the method: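 An Agilent 4 × 180k array carrying primer-extended double-stranded 36-bp intergenic genomic probes and negative controls received GST-tagged P. falciparum DNA-binding domains expressed in E. coli, about 25 μg on average, for 1 h. The binding buffer contained 1× PBS, 1% milk, 0.2 mg/ml BSA, 0.5% salmon testes DNA and 0.03% Triton X-100. Binding intensity is the top Masliner-normalised natural-log median intensity across replicate spots of either probe orientation, read after Alexa488 anti-GST antibody staining and a 488 nm scan.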

Row | Sequence | gcPBM binding intensity (ln)
1 | ATATATCTTTATATAGTGCATTAAATATGTTGTAAT [GTGCAC_site9953] | 9.5
2 | TATAATAAAATATTTTGTACGTATATTTTAATATTT [XGTACX_site2582] | 9.59
3 | AAAAAAAATAAAAATAGTACCCAAAAAATTATGAAT [XGTACX_site6641] | 9.73
4 | TTTTTATAAAAATGAACACACACATATATATATATA [CACACA_site9160] | 9.79
5 | AATAACACTATTTAACGTACAAAAAAAAAAAAGAAA [XGTACX_site3721] | 9.72
6 | ACAAAAAAAAAAAAAAAAAGAAGAATATATCTATAT [CACACA_negctrl_site759] | 9.34
7 | TATCATACAATATTCACACAAATAAATTGACATATT [CACACA_site5891] | 9.61
8 | CACAGACACGGACACACACACACAAAAAAAAAAAGA [CACACA_site4436] | 11.3
9 | TATTAAAAAAATATTTGTACTTAAAATTTATTATAT [XGTACX_site1467] | 9.48
10 | TATTTTCTTTAATTAATTATTGGTCTGAATGGGGTT [CACACA_negctrl_site418] | 9.56
11 | AAAAAGGAAATAATAACACACATTAGTAATTATAAA [CACACA_site7573] | 9.85
12 | AATATCTTAGTGGATACACACATATAAATGGGTATT [CACACA_site4426] | 9.72
13 | TCATATGTTAAACACACACACACACCGAAAAAAACA [CACACA_site9067] | 10.6
14 | AAAAAATTAAAAAAAAAAAAATCATGAAAAAAACAA [CACACA_negctrl_site1673] | 9.7
15 | TTTATTGATAATATATATATATATATATATATATAT [GTGCAC_negctrl_site552] | 9.48
16 | AGTCTATAGTAATTTACACACAAAAAAATATCAGGA [CACACA_site7620] | 9.89
17 | AGTAGTCTGGAGAAAAGTACATAGTATCTGGTAGCT [XGTACX_site2027] | 9.63
18 | CCTAAATAAATGGACACACACATATATATATATATA [CACACA_site1439] | 9.88
19 | CTTATATTAAGTATTACACACATATATATAAATGCA [CACACA_site4581] | 9.65
20 | TATATATATATAAGAAGTACAGAAAATTAGAAAAAA [XGTACX_site8773] | 9.77
21 | TAGAAATAAGAAAAATGTACATATAATATTGAAAGT [XGTACX_site3043] | 10.1
22 | TTTTACGTAATATTTATACACACGAACCTTATTAAT [CACACA_site2300] | 9.82

Row | Sequence | gcPBM binding intensity (ln)
23 | GATGTGTATATTAAATGTACGAACAGTTGAGGCGAA [XGTACX_site7853] | 9.86
24 | AGGATATAAAGTTGTGCATGTCAAGTGCACCGTATT [TGCATGCA_site451] | 9.67
25 | AGAAAAATCTAAATTCGTACATAACGTTTAAACATA [XGTACX_site2511] | 9.43
26 | CAGCATGGTATACCTATAAAATATATATACTAACAT [TGCATGCA_negctrl_site51] | 9.56
27 | TTTTTAAAAAATAAGAAAAAATAAATATATTACAAA [XGTACX_negctrl_site191] | 9.41
28 | ATGTTACACAGACACACACACATAAAAAAACAAAAA [CACACA_site7516] | 10.4
29 | GGCATATATACATATGGTACACATTTATTAATACCG [XGTACX_site2710] | 9.76
30 | CACATACATATATATACACACAAATATATATACGCA [CACACA_site791] | 10.1
31 | AGAACATGCAAACATGCACACAGAAAAAAAAAATAT [CACACA_site8442] | 10.1
32 | GTTTTATTCCATTATTGTACTTAATATAAAGAAACT [XGTACX_site3054] | 9.5
33 | ATAATAATATGTGGGTGTACATATACACATATATAT [XGTACX_site4356] | 9.9
34 | ATAAATTGAAGTAAATTTGACCTTTTTTTTTTTTTT [GTGCAC_negctrl_site354] | 9.44
35 | TTCATTTATATAATCACACATTTTATCATCTATGTT [CACACA_site4327] | 9.97
36 | TTAGAAAGAATGTATTGTACATATATATTATATATA [XGTACX_site7045] | 9.45
37 | ATATGTTTATTTATTTGTACTTATCATATAATAACA [XGTACX_site5486] | 9.49
38 | TGTATATTTTAGTGATGTACTAATATTATTACTAAT [XGTACX_site3952] | 9.61
39 | TGCTTAGCACACTATCTACTTCCTTTGTTTCATAAA [GTGCAC_negctrl_site495] | 9.73
40 | TTTTTCACATCTATAAATCATCTAATCAATATTTTT [GTGCAC_negctrl_site444] | 9.55
41 | ATTCTAATTAGTAAAGTGCAGATAAAATGATGCCCT [GTGCAC_site9578] | 9.42
42 | AATATATTTTGATATGAACAATTAATAATTTCAAAT [GTGCAC_negctrl_site170] | 9.51
43 | ATCGTTATATAATGTTGTACTTGTTATATATATATA [XGTACX_site7582] | 9.9
44 | GCATGCACGGAAAAAAGTACATATATAAATTTGGTT [XGTACX_site3393] | 9.54

Row | Sequence | gcPBM binding intensity (ln)
45 | GGTTCTAAAAAGGGAAGTACATGGAAAAATATAAAT [XGTACX_site4639] | 9.46
46 | TTTTTTAAATATATTTGTACATATGAAATAAAGATA [XGTACX_site3841] | 9.28
47 | AAAATTTAGCAAAGGTGTACAAAAGATAATTAGAGT [XGTACX_site3467] | 10
48 | AAAATTATTATGAAAAGTACAAATATGTAAACATAC [XGTACX_site5517] | 9.69
49 | ATTAAAATCATATACACACCCATATATATATATATA [CACACA_site5050] | 10.1
50 | ATACATATCTACCTATGTACATAATACAACAAAGAT [XGTACX_site323] | 9.72
51 | GAATAAATACCGGTGTGTACTTAAATCATTCACGAA [XGTACX_site3174] | 9.8
52 | GCACATATGAATATAATACACACTTGTATTATTAAT [CACACA_site1841] | 9.8
53 | ATTTTATATACAAAATGTACATATTTATTATATATG [XGTACX_site6732] | 9.68
54 | GGAGCTATCTCCTGCACACACAATTTTTTTTTTTTT [CACACA_site2240] | 9.95
55 | AAGGATACGCAAAAATGTACAAAATGCTTATAAATA [XGTACX_site984] | 9.68
56 | TTTTTTTTTAATAAAATTATAATAAATATGAAATTA [XGTACX_negctrl_site369] | 9.12
57 | ATATATATATATATATGTACACATATATATACTCAC [XGTACX_site8043] | 9.94
58 | TGAGTATATAAATACACACACATATATATATTTTAA [CACACA_site5130] | 9.96
59 | TTTTATTTTTAAGGATGTACTCAATTGTTTATATAC [XGTACX_site3965] | 9.7
60 | ATACACTTAATATTATGTACATATATAAAAAAAATA [XGTACX_site1500] | 9.66
61 | TATATTTAAATTCTTTCAAATCATGTTGTAATTTTT [CACACA_negctrl_site1349] | 9.62
62 | AATTGTATGTATGCCTGTACATATGTCTATCTTAAG [XGTACX_site1927] | 9.75
63 | TATTTTATATGAGGCACACAAATTTTAATTGTTATT [CACACA_site725] | 9.63
64 | ATTTATTTATTTTTTTGTACTTATAATTTTTATTAT [XGTACX_site2656] | 9.8
65 | TATAAAAATAATATTACACACATGTAAAATGGGGGT [CACACA_site9071] | 10.2
66 | AGGAATATCGAAAACTGTACTTGTATGTTTCATAAA [XGTACX_site6143] | 9.57

Row | Sequence | gcPBM binding intensity (ln)
67 | TATTTATCTATATATTGTACTTATTAGTCTTAATGT [XGTACX_site4242] | 9.77
68 | TAAATTTATGGACACACACACATATATATATATATA [CACACA_site4620] | 10.3
69 | TCTTTTTTAATATAATATATTTTTATTAAGTAAATC [TGCATGCA_negctrl_site408] | 9.47
70 | TTATATATAGATCACACACACACACCGGTTTTAAAA [CACACA_site4220] | 11.2
71 | AAATTTTAATTAGGAACACACATATATATATATATA [CACACA_site5673] | 9.69
72 | CATAAAAATGGATACACACACATAATATATTTATAT [CACACA_site7669] | 10.5
73 | ACAATATATTCATATTGTACATAAAATAAGGCTAAC [XGTACX_site6728] | 9.83
74 | TTTTCAGAAAAGAGAAACTTTATTTTTCACAACCGA [TGCATGCA_negctrl_site389] | 9.41
75 | ATTTTTTATGAAAATAAACACACGATTTATTATATA [CACACA_site1312] | 9.56
76 | TAAAAAATTATTAAACGTACGAGACTTTTTATCAGT [XGTACX_site2219] | 9.56
77 | TGTAGTCATTAGTCAAATTAGAATTAAATATATATT [GTGCAC_negctrl_site643] | 9.44
78 | AAAAAATCACGACACACACACACACTAAAAAAAAAA [CACACA_site6792] | 11.3
79 | AATGTTTTTTTTTTTTTTTTTTTTTATTTATTGTTA [CACACA_negctrl_site505] | 9.56
80 | ATCAAATAATAGCAAACACACAAAAAATAAAAAAAA [CACACA_site4146] | 9.93
81 | ATTTTTTGGAAAAGAAGTACAATGGATTTATACGTT [XGTACX_site891] | 9.44
82 | TAACATATAATATTATGTACATATATACATATATAA [XGTACX_site7467] | 9.51
83 | TATTTCAATATATACCTTTGCTTTTTTAATATACTT [XGTACX_negctrl_site556] | 9.77
84 | TCAATATAAATTAGTTGTACAGTTTTTTTTAATTAT [XGTACX_site6358] | 9.54
85 | TTTAAATAATCTAGGTGTACTTTCCTTTATAAATGT [XGTACX_site7859] | 9.52
86 | AGAATACATATATGAACACACAGAGTTTTAAAAAAT [CACACA_site2735] | 10.1
87 | TACAGACAGAAATGCACACACATATATATATATATA [CACACA_site2283] | 9.97
